Like-named read-outs stand apart in the source and are kept apart here.
Tests used:
[1] = target: T1, human GIPR expressed on HEK293T cells (human, UniProt P48546 22-466); assay: flow cytometry on 293T-GIPR cells, 10 µg/mL, anti-human IgG-APC
T1 construct: whole, on cells; Two cell lines are used (293T-GIPR; 293T-GIPRFL-GFP-PURO-5, stably expressing full-length human GIPR on the membrane); both are treated as human GIPR on cells; also called 293T-GIPR; 293T-GIPRFL-GFP-PURO-5
T1 sequence (looked up): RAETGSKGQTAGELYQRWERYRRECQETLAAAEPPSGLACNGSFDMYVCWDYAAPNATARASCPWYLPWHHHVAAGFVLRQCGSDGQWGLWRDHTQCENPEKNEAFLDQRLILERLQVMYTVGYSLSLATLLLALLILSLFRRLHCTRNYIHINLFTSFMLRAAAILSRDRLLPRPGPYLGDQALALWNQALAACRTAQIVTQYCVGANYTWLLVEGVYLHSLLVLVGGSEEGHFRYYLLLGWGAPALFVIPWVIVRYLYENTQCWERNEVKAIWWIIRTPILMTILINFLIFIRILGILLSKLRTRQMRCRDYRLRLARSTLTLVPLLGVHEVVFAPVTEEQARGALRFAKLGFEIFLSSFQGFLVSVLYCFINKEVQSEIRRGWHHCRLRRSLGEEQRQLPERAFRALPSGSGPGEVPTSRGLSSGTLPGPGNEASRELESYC

[2] = target: T1, human GIPR expressed on HEK293T cells; assay: flow cytometry on 293T-GIPR cells, 100 µg/mL, anti-human IgG-APC
[3] = target: T2, GIPR-ECD-chis (a his tag-fused human GIPR extracellular region fragment) (human, UniProt P48546 22-138, limits assumed); assay: BLI, Fc fusion on AHC sensor, GIPR-ECD-chis in solution
T2 construct: extracellular domain; not shown: his tag
T2 sequence (looked up): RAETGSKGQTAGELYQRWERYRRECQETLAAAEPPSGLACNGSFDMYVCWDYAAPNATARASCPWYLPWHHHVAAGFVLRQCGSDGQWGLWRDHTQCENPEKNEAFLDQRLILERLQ

[4] = target: T1, human GIPR expressed on HEK293T cells; assay: cell-based or functional assay
[5] = target: T2, GIPR-ECD-chis (a his tag-fused human …); assay: BLI, Fc fusion on AHC sensor, GIPR-ECD-chis in solution; remark: listed apart in the source
[6] = target: T2, GIPR-ECD-chis (a his tag-fused human …); assay: as above; remark: listed apart in the source
[7] = target: T2, GIPR-ECD-chis (a his tag-fused human …); assay: as above; remark: listed apart in the source

Binder	MFI [1] [MFI]	MFI [2] [MFI]	Kd [3] [nM]	koff [3] [s⁻¹]	kon [3] [M⁻¹ s⁻¹]	MEAN cAMP expression level (pM), +100 ng/mL GIP-C12H4-Fc4, fusion protein 0.1 µg/mL [4] [pM]	MEAN cAMP expression level (pM), +100 ng/mL GIP-C12H4-Fc4, fusion protein 1 µg/mL [4] [pM]	MEAN cAMP expression level (pM), +100 ng/mL GIP-C12H4-Fc4, fusion protein 10 µg/mL [4] [pM]	Kd [5] [nM]	koff [5] [s⁻¹]	kon [5] [M⁻¹ s⁻¹]	Kd [6] [nM]	koff [6] [s⁻¹]	kon [6] [M⁻¹ s⁻¹]	Kd [7] [nM]	koff [7] [s⁻¹]	kon [7] [M⁻¹ s⁻¹]
iGI-72-Ld-Fc (Fc fusion, also called iGI72-72-Ld-Fc) QVQLVESGGGLVQPGGSLRLSCAASRYTLDYYAIGWFRQAPGKEREGVSCINSKDGSTYYADSVKGRFTISKDNAKNTVYLQMNSLKPEDTAVYYCAAGYDPWSGIPPVQAMCVMGYDYWGQGTQVTVSS[human IgG1 Fc not written out]	5140	6960	0.59	8.69e-05	147000	119	52.7	5.79	0.162	3.16e-05	196000	1.19	0.000285	239000	–	–	–
huGI-72v5-Ld-Fc (Fc fusion, also called huG1-72v5 (VHH part)) QVQLVESGGGLVQPGGSLRLSCSASRYTLDYYAIGWFRQAPGKEREGVSCINSKDGSTYYADSVKGRFTISKDNSKNTVYLQMNSLRAEDTAVYYCAAGYDPWSGIPPVQAMCVMGYDYWGQGTLVTVSS[human IgG1 Fc not written out]	–	–	–	–	–	–	–	–	–	–	–	0.903	0.000182	202000	2.77	0.000575	208000

From patent publication US20260176344A1 (SUZHOU ALPHAMAB, published 2026)
